# Laboratory results as given in PubChem BioAssay AID504339 (National Center for Advancing Translational Sciences (NCATS), 2011).
# Among all 390,000 compounds or so, about 17,000 (4.4%) were called active. Inconclusive means that the source gave no clear call. Such entries were picked first, then a sample of the others. Calls come from the whole dose curve; as a rule, active = well fitted inhibition curve with a large enough effect; inconclusive = small, poorly fitted or top-dose-only effect; inactive = no such curve, though single readings can be large or run the other way. Where the call is inconclusive, the potency comes from a doubtful curve fit.
# Molecular target: Lysine-specific demethylase 4A (Homo sapiens) (UniProt O75164)
# Test: qHTS Assay for Inhibitors of JMJD2A-Tudor Domain; note: nearly all actives have a fitted effect of over 50% in size
# Conditions: AlphaScreen JMJD2A-Tudor / H3K4me3 peptide binding; activity change, negative = inhibition: at 114 µM (top of the series)
# % is set by controls: 0 for no effect and ±100 for the full control effect; potency is the fitted concentration of half-maximal effect; tags give direction and shape of the fitted curve.
# Sequence of UniProt O75164 (O75164 whole entry, looked up, the tested form may be a part): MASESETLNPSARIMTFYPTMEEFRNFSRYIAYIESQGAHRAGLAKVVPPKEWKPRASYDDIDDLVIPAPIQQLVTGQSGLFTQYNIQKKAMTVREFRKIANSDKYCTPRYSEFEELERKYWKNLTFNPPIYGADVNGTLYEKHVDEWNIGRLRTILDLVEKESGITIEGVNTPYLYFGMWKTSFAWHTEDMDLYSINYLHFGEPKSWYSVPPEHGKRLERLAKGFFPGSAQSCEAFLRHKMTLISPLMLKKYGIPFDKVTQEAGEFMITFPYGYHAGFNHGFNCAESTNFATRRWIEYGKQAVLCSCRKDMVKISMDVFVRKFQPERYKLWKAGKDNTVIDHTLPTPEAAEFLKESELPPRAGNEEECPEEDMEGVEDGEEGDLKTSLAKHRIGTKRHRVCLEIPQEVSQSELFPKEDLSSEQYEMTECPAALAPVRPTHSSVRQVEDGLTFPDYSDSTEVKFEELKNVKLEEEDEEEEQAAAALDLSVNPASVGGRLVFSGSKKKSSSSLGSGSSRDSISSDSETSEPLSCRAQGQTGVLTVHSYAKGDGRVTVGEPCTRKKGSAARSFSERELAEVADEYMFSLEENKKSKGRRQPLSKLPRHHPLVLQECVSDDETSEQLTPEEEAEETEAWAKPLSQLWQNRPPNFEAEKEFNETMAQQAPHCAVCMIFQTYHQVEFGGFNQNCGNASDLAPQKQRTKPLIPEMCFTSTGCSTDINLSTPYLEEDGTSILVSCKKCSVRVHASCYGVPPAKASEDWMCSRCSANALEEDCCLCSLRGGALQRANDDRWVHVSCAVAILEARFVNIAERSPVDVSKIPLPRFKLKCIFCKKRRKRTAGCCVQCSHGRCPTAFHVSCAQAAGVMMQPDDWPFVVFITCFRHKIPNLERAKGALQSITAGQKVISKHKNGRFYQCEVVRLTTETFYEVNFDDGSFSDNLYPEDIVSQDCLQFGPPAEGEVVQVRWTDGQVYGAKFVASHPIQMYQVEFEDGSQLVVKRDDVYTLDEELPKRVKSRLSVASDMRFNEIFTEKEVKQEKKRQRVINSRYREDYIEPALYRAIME
Structure (SMILES),Potency,"activity change, negative = inhibition"
CCOc1ccc(N2C(=O)C3Sc4[nH]c(=O)sc4C(c4ccc(OC)c(OC)c4)C3C2=O)cc1 (stereo not drawn),"inconclusive: 39.8 µM [inhibitor, partial curve]",
Cc1cc(C)nc(SCC(=O)Nc2ncc(C(F)(F)F)cc2Cl)n1,inactive,
COc1ccc(CNC(=O)C[C@H]2C[C@H](C(=O)N3CCCCC3)[C@@]3(CCc4ccccc4)c4[nH]c5cc(-c6ccco6)ccc5c4CCN3C2=O)cc1OC,"inconclusive: 22.4 µM [inhibitor, full curve]",
Cc1cc(C)c(NC(=O)COC(=O)c2cccc3c2C(=O)c2ccccc2C3=O)c(C)c1,"inconclusive: 8.91 µM [inhibitor, partial curve]",
COc1ccc(C(=O)CSc2ncn[nH]2)cc1OC,active: 39.8 µM,
CC(C)=NNc1nc2c(c(=O)n(C)c(=O)n2C)n1CCc1ccccc1,"inconclusive: 56.2 µM [inhibitor, partial curve]",
Cc1c(C(=O)NCc2ccccc2)sc2nc3n(c(=O)c12)CCCCC3,"inconclusive: 100 µM [inhibitor, single point]",
Cc1cccc(Cn2c(C(=O)OC(C)C)cc3c2ccn3C)c1,,inactive: -16% [at 11.4 µM]
Cc1ccccc1-c1nnc(SCCC(=O)N2CCOCC2)o1,"inconclusive: 89.1 µM [inhibitor, partial curve]",
COc1ccc(N2CCN(c3nc(NC(C)(C)C)nc(N4CCCCC4)n3)CC2)cc1,"inconclusive: 11.2 µM [inhibitor, full curve]",
COc1ccc(-c2ccc3c(c2)S(=O)(=O)c2cccc(C(=O)N4CCN(c5ccc(Cl)cn5)CC4)c2C3=O)cc1OC,"inconclusive: 39.8 µM [inhibitor, partial curve]",
O=C(N/N=C/c1ccco1)c1cccc(N2Cc3ccccc3C2)c1,active: 28.2 µM,
Cc1cc(C)cc(OCC(=O)N(C)CC(=O)Nc2ccc(N3CCOCC3)cc2)c1,inactive,
C=CCNC(=O)c1ccccc1NC(=O)C1CCN(S(=O)(=O)c2ccc(SC)cc2)CC1,inactive,
COc1cc(OC)cc(C(=O)NC(=S)NNC(=O)[C@H]2C[C@@H]2c2ccccc2)c1,"inconclusive: 56.2 µM [inhibitor, partial curve]",
Clc1cccc(N2CCN(c3nc4ccccc4n4nnnc34)CC2)c1,inactive,
COc1cccc(C(CCc2cc(OC)c(OC)c(OC)c2)NC(C)=O)c1 (stereo not drawn),"inconclusive: 39.8 µM [inhibitor, partial curve]",
CCOC(=O)C1(C)/C(=N/Nc2cccc(Cl)c2)C(=O)C(=O)N1c1ccccc1 (stereo not drawn),active: 28.2 µM,
O=C1NN(c2ccc(Cl)cc2)C(=O)/C1=C\c1ccc(-c2cccc(C(=O)O)c2)o1,active: 35.5 µM,
CCCc1nnc(NC(=O)c2c(O)c3cccc4c3n(c2=O)CC4)s1,"inconclusive: 50.1 µM [inhibitor, partial curve]",
O=C(Nc1ccccc1N1CCCC1)c1ccc(Cl)c(S(=O)(=O)N2CCOCC2)c1,"inconclusive: 56.2 µM [inhibitor, partial curve]",
O=C(COc1ccccc1)N1CCN(c2nnc(-c3ccccc3)c3ccccc23)CC1,"inconclusive: 35.5 µM [inhibitor, partial curve]",
CCCCCCc1ccc(OCC(=O)O)cc1OCC(=O)O,inactive,

Structure (SMILES),Potency,"activity change, negative = inhibition"
S=c1[nH]nc(-c2ccncc2)n1Cc1ccccc1,active: 7.94 µM,
CC(=O)OCC1=C(C(=O)O)N2C(=O)[C@@H](NC(=O)Cc3cccs3)[C@H]2SC1,active: 79.4 µM,
CN(C)c1ccc(NC(=S)NC23CC4CC(CC(C4)C2)C3)cc1,"inconclusive: 8.91 µM [inhibitor, full curve]",
COc1ccc(C(CCc2ccc(C)o2)NC(=O)Nc2ccc(OC)cc2OC)cc1 (stereo not drawn),"inconclusive: 31.6 µM [inhibitor, full curve, poor fit]",
COc1ccccc1C(CNC(=O)c1cccc(S(=O)(=O)Nc2ccc(F)cc2)c1)N1CCCC1 (stereo not drawn),"inconclusive: 10 µM [inhibitor, partial curve, poor fit]",
CCOc1ccc(N/C(N)=N/c2nc(C)c(C)c(=O)[nH]2)cc1,"inconclusive: 25.1 µM [inhibitor, partial curve]",
CCOC(=O)c1c(C)[nH]c(C)c1S(=O)(=O)NCC1CCN(Cc2cccc(Cl)c2)CC1,"inconclusive: 35.5 µM [inhibitor, partial curve]",
CCOc1ccc(C2=CC(=O)C[C@H](c3ccc(OC)cc3)C2)cc1,inactive,
Cc1cc(C)cc(NC(=O)CSc2nc3nc(C)cc(C)n3n2)c1,inactive,
COc1cccc(N(C(=O)c2ccco2)C(C(=O)NC2CCCC2)c2ccc(N(C)C)cc2)c1 (stereo not drawn),"inconclusive: 79.4 µM [inhibitor, partial curve]",
CCc1ccc(Nc2n[n+](-c3ccccc3)c(-c3ccc(N(CC)CC)cc3)s2)cc1,active: 39.8 µM,
Cc1nn(CC(O)COc2ccc3c(c2)CCC3)c(C)c1C (stereo not drawn),"inconclusive: 3.16 µM [inhibitor, single point]",
Cc1cccc(N2CCN(C(=O)CCC(=O)N3CC(C)Oc4ccc(C)cc43)CC2C)c1 (stereo not drawn),"inconclusive: 50.1 µM [inhibitor, full curve]",
C/C=C/c1ccc(OCC(O)CNCCc2ccc(OC)cc2)c(OC)c1 (stereo not drawn),active: 20 µM,
COc1ccc(NS(=O)(=O)c2ccc(N3CCCC3)c(NC(=S)Nc3cccc(C)c3C)c2)cc1,active: 56.2 µM,
CCOC(=O)C1(CCOc2ccccc2)CCN(Cc2cccn2-c2cccnc2)CC1,"inconclusive: 50.1 µM [inhibitor, partial curve]",
Cc1ccc(-c2cn(-c3ccccc3)c(SCC(=O)NC3CCS(=O)(=O)C3)n2)cc1C (stereo not drawn),"inconclusive: 50.1 µM [inhibitor, partial curve]",
O=C(Nc1ccc2nccnc2c1)c1cnccn1,"inconclusive: 79.4 µM [inhibitor, single point]",
CCN1CCN(c2nc3ccccc3nc2C(C#N)C(=O)OC2CCCCC2)CC1 (stereo not drawn),"inconclusive: 50.1 µM [inhibitor, partial curve]",
C(=N\c1nccs1)/Nc1nccs1,active: 35.5 µM,
CCOc1ccc(NC(=O)c2c(Nc3ccccc3C)sc(C(=O)c3ccc(Cl)cc3)c2N)cc1,"inconclusive: 39.8 µM [inhibitor, partial curve]",
CNC(=O)c1ccc(C)c(NC(=O)C2=C(C)OCCS2)c1,inactive,
COc1ccccc1Nc1nc(-c2sc(N)nc2C)cs1,"inconclusive: 50.1 µM [inhibitor, partial curve]",

Structure (SMILES),Potency,"activity change, negative = inhibition"
O=C(c1ccco1)N1CCN(Cc2ccc(F)cc2)CC1,active: 20 µM,
COc1ccccc1-n1c(=S)[nH]c2c(sc(=S)n2-c2ccc(C)cc2C)c1=O,active: 50.1 µM,
Cc1ccc(-n2c(SCC(N)=O)nnc2-c2ccccn2)cc1,"inconclusive: 39.8 µM [inhibitor, single point]",
CSc1nc2cc(C)nn2c(-c2ccccc2)c1C#N,inactive,
CNC(C)C#Cc1c(-c2cc(OC)c(OC)c(OC)c2)noc1C (stereo not drawn),"inconclusive: 89.1 µM [inhibitor, partial curve]",
C=CCOC(=O)C(C#N)c1nc2ccccc2nc1N1CCN(Cc2ccc3c(c2)OCO3)CC1 (stereo not drawn),"inconclusive: 12.6 µM [inhibitor, partial curve]",
COc1cccc(C2c3c(ncn(-c4ccncc4)c3=N)Oc3ccc4ccccc4c32)c1 (stereo not drawn),"inconclusive: 63.1 µM [inhibitor, partial curve]",
N#CC1=C2SCN(C3CCCCC3)CN2C(=O)CC1c1c(F)cccc1Cl (stereo not drawn),active: 22.4 µM,
Cc1sc2nc(SCCN(C)C)n(-c3ccccc3)c(=O)c2c1-c1ccc(F)cc1,"inconclusive: 14.1 µM [inhibitor, partial curve]",
Cc1onc(-c2c(F)cccc2Cl)c1C(=O)ONC(=O)c1ccco1,active: 39.8 µM,
Cc1cccc2c1N(C(=O)CN1C(=O)c3ccccc3C1=O)C(C)(C)c1ssc(=S)c1-2,"inconclusive: 28.2 µM [inhibitor, partial curve]",
Cc1ccsc1C(=O)NNC(=O)C1CC=CCC1C(=O)O (stereo not drawn),inactive,
O=C1N=C(N2CCN(c3ccccc3)CC2)S/C1=C\c1ccco1,"inconclusive: 50.1 µM [inhibitor, partial curve]",
CC(C)C(=O)Nc1ccc(C(=O)N/N=C/c2cc(Br)cc(Br)c2O)cc1,"inconclusive: 11.2 µM [inhibitor, full curve]",
CCCCn1c(CCC(=O)O)ccc1-c1cccs1,"inconclusive: 50.1 µM [inhibitor, partial curve]",
COC(=O)C1=C2SCC(=O)N2C(N)=C(C#N)C1,inactive,
O=C(NN=Cc1ccccc1OC(F)F)c1ccc(NS(=O)(=O)c2cccs2)cc1,"inconclusive: 89.1 µM [inhibitor, partial curve]",
COc1ccc(N2CCN(C(C)C(=O)N3CC(C)OC(C)C3)CC2)cc1 (stereo not drawn),active: 0.891 µM,
CC(CNC(=O)C1CCN(C(=O)N2CCOc3ccc(Cl)cc32)CC1)c1ccccc1 (stereo not drawn),"inconclusive: 44.7 µM [inhibitor, partial curve]",
CN(Cc1ccccc1)c1nc(CN2CCOCC2)nc2scc(-c3ccccc3)c12,"inconclusive: 31.6 µM [inhibitor, single point]",
O=C(COC(=O)CCc1ccccc1)NC12CC3CC(CC(C3)C1)C2,inactive,
COc1ccc(NC(=O)CN(Cc2ccco2)Cc2ccco2)cc1S(=O)(=O)N1CCCCC1,"inconclusive: 20 µM [inhibitor, partial curve, poor fit]",
